Assay results: the supplement of paper PMC10338343
± gives the standard deviation. Only a part is listed here, and it is no random draw.

The sequences below were run on MIWI (PIWIL1) piRISC loaded with L1MC piRNA (30 nt) (assay: pre-steady-state target cleavage rate (min^-1); MIWI and MILI are mouse PIWI proteins and EfPiwi is from a freshwater sponge; tags in brackets are library labels; higher = faster piRNA-guided slicing of the target). Conditions: guide: L1MC piRNA 5'p-UAACUAAAUACUAUGCAAGCUGUAGGUCCU; auxiliary factor: 500 nM mouse GTSF1.
In short: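 Using HEPES–potassium acetate buffer at 33 °C, 1 nM active affinity-purified piRISC with a single synthetic guide was mixed with 0.1 nM transcribed, DNA-blocked target RNA library for 0–8 or 0–960 min, with or without 500 nM GTSF1 partner protein. Uncleaved targets were sequenced and normalised to depth and to weakly complementary targets, and three trials were pooled with k3 capped at 0.0001 min^-1. A burst-and-steady-state fit gave the pre-steady-state cleavage rate.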

Sequence	pre-steady-state target cleavage rate
UCCUGGAACAGCUUCGCAUAGUAUUUAGUUA	0.887 ± 0.038
AGGACCUACACCUUGCAUAGUAUUUUGUUA	0.768 ± 0.077
UCGACCUACAGCUUGCAUGUAUUUAGUUA	0.479 ± 0.05
AGGACCUACAGCUUGGAUUGUAUUUAGUUA	0.643 ± 0.036
UCCUGGAACAGCUUGCAUAGUAUAUACUUA	0.103 ± 0.021
AGGACCUACAGCUUGGUUAGUAUUUAGUUA	1.31 ± 0.068
UGGAGCUACAGCUUGCAAAGUAUUUAGUUA	1.27 ± 0.062
UCCUCCUACAGCUUGCAUAGUAAUUAGUAA	0.347 ± 0.039
UCCUGGUACAGCUUGCAUAGUAUUCAGUUA	0.197 ± 0.034
UCGUGGUACAGCUUGCAUAGUAUUUAGUUA	1.23 ± 0.038
UGGACGAUCAGCUUGCAUAGUAUUUACAAA	0.351 ± 0.042
UCCUGGAACAGGUUGCAUAGUAUUUAGAUA	0.344 ± 0.052
AGGACCUACAGCUUGGAAAGUAUUUAGUUA	1.16 ± 0.037
AGGACCUACAGGUUGCAUAGUAUUAAGUUA	0.784 ± 0.069
AGGACCUACAGCUUGCAUAGUAUUUUGUUA	0.949 ± 0.064
UGGACCUACAGCUUGCAUUGUAUUUACAAA	0.0491 ± 0.01
UCCUGCUACAGACUUGCAUAGUAUUUAGUUA	0.402 ± 0.028
UCGACCUAGAGCUUGCAUAGUAUUUACUUA	0.37 ± 0.055
UCCUCCUACAGCUUGCAAAGUAUUUACUUA	0.313 ± 0.025
UCCUGCAACAGCUUGCAUAGUUUUUAGUUA	0.44 ± 0.025

Sequence	pre-steady-state target cleavage rate
UCGACCUUCACCUUGCAUAGUAUUUAGUUA	0.909 ± 0.045
UCCUGGAUGUGCUUGCAAAGUAUUUAGAAA	0.0188 ± 0.0047
UCGACCUUCAGCUAGCAUAGUAUUUAGUUA	1.16 ± 0.064
UCGACCUACAGGUUGCAUAGUAAUUAGUUA	0.76 ± 0.045
AGGACCUACAGCGUGCAUAGUAUUUAGUUA	1.34 ± 0.054
UCCACCUACAGCAUGCAUAGUUUUUAGUUA	0.278 ± 0.023
UCCUGGUACAGCUUGCAUAGUAUUUUAGUUA	0.549 ± 0.06
UCCUGGAACAACUUGCAUAGUAUUUAGUUA	0.989 ± 0.043
UCCUGGUACAGGUUGCAUAGUAUUUAGUUA	0.688 ± 0.077
UCCACCUAGAGCUUGCAUUGUAUUUAGUUA	0.568 ± 0.056
UCCUGGUACAGCUUGCAAUGUAUUUAGUUA	0.279 ± 0.02
UCCUCCUACAGCUUGCAUAGUUUUUACUUA	0.122 ± 0.02
UCCUGGAUCAGCUUGCAUACUAAUUAGUUA	0.0563 ± 0.0091
UCCUGGAUCAGCUAGCAUUGUAUUUAGUUA	0.213 ± 0.017
UGGUCCUACAGCAUGCAUAGUAUUUAGUUA	1.19 ± 0.061
UCCUGGAUGAGCUUACAUAGUAUUUAGUUA	0.643 ± 0.057
UCGAGCUACUGCUUGCAUAGUAUUUAGUUA	1.15 ± 0.053
UCCUGCAACAGCUUGCAUAGUAUUUACUUA	0.353 ± 0.032
UCCACCCUACAGCUUGCAUAGUAUUUAGUUA	0.831 ± 0.055
AGGACCUACACGUUGCAUAGUAUUUAGUAA	0.742 ± 0.052

Same assay, conditions: guide: L1MC piRNA 5'p-UAACUAAAUACUAUGCAAGCUGUAGGUCCU; auxiliary factor: none (no GTSF1)

Sequence	pre-steady-state target cleavage rate
UCCUGGAACAGCUUCGCAUAGUAUUUAGUUA	0.0143 ± 0.0043
AGGACCUACACCUUGCAUAGUAUUUUGUUA	0.0627 ± 0.011
UCGACCUACAGCUUGCAUGUAUUUAGUUA	0.00292 ± 0.0025
AGGACCUACAGCUUGGAUUGUAUUUAGUUA	0.0162 ± 0.0038
UCCUGGAACAGCUUGCAUAGUAUAUACUUA	0.00868 ± 0.0035
AGGACCUACAGCUUGGUUAGUAUUUAGUUA	0.0104 ± 0.0024
UGGAGCUACAGCUUGCAAAGUAUUUAGUUA	0.0471 ± 0.0092
UCCUCCUACAGCUUGCAUAGUAAUUAGUAA	0.0074 ± 0.0022
UCCUGGUACAGCUUGCAUAGUAUUCAGUUA	0.0276 ± 0.0071
UCGUGGUACAGCUUGCAUAGUAUUUAGUUA	0.0818 ± 0.014
UGGACGAUCAGCUUGCAUAGUAUUUACAAA	0.0104 ± 0.003
UCCUGGAACAGGUUGCAUAGUAUUUAGAUA	0.0065 ± 0.0021
AGGACCUACAGCUUGGAAAGUAUUUAGUUA	0.00672 ± 0.0024
AGGACCUACAGGUUGCAUAGUAUUAAGUUA	0.0296 ± 0.0069
AGGACCUACAGCUUGCAUAGUAUUUUGUUA	0.0718 ± 0.016
UGGACCUACAGCUUGCAUUGUAUUUACAAA	0.00318 ± 0.002
UCCUGCUACAGACUUGCAUAGUAUUUAGUUA	0.0238 ± 0.004
UCGACCUAGAGCUUGCAUAGUAUUUACUUA	0.0185 ± 0.0031
UCCUCCUACAGCUUGCAAAGUAUUUACUUA	0.0191 ± 0.0036
UCCUGCAACAGCUUGCAUAGUUUUUAGUUA	0.0443 ± 0.01

Sequence	pre-steady-state target cleavage rate
UCGACCUUCACCUUGCAUAGUAUUUAGUUA	0.0488 ± 0.0074
UCCUGGAUGUGCUUGCAAAGUAUUUAGAAA	0.00328 ± 0.003
UCGACCUUCAGCUAGCAUAGUAUUUAGUUA	0.0256 ± 0.0053
UCGACCUACAGGUUGCAUAGUAAUUAGUUA	0.0133 ± 0.0034
AGGACCUACAGCGUGCAUAGUAUUUAGUUA	0.0658 ± 0.011
UCCACCUACAGCAUGCAUAGUUUUUAGUUA	0.0116 ± 0.0021
UCCUGGUACAGCUUGCAUAGUAUUUUAGUUA	0.0117 ± 0.0026
UCCUGGAACAACUUGCAUAGUAUUUAGUUA	0.0463 ± 0.011
UCCUGGUACAGGUUGCAUAGUAUUUAGUUA	0.02 ± 0.0044
UCCACCUAGAGCUUGCAUUGUAUUUAGUUA	0.0183 ± 0.0036
UCCUGGUACAGCUUGCAAUGUAUUUAGUUA	0.0101 ± 0.0036
UCCUCCUACAGCUUGCAUAGUUUUUACUUA	0.0147 ± 0.0039
UCCUGGAUCAGCUUGCAUACUAAUUAGUUA	0.00771 ± 0.0023
UCCUGGAUCAGCUAGCAUUGUAUUUAGUUA	0.00673 ± 0.0032
UGGUCCUACAGCAUGCAUAGUAUUUAGUUA	0.0657 ± 0.014
UCCUGGAUGAGCUUACAUAGUAUUUAGUUA	0.0151 ± 0.0045
UCGAGCUACUGCUUGCAUAGUAUUUAGUUA	0.0574 ± 0.0096
UCCUGCAACAGCUUGCAUAGUAUUUACUUA	0.0202 ± 0.0037
UCCACCCUACAGCUUGCAUAGUAUUUAGUUA	0.0575 ± 0.012
AGGACCUACACGUUGCAUAGUAUUUAGUAA	0.0223 ± 0.0036
